The list shows a part of the results.
Tests used:
[1] = test system: HSkMC (human skeletal muscle cells); assay: cytotoxicity call (relative viability < 0.9); details: 10 µM
[2] = test system: S. aureus RN4220; assay: growth inhibition call (relative growth <= 0.2); details: 50 µM

C[C@H](CO)N1C[C@H](C)[C@@H](CN(C)C(=O)Nc2ccc(F)cc2)OCCCC[C@H](C)Oc2ccc(NC(=O)C3CCCCC3)cc2C1=O
cytotoxicity call [1]: inactive
growth inhibition call [2]: inactive

OC[C@@H]1CC[C@@H]2O[C@H](CCc3ccc(C#CCc4ccccc4)cc3)[C@@H](n3cc(-c4ccccc4)nn3)C[C@@H]2O1
cytotoxicity call [1]: inactive
growth inhibition call [2]: inactive

C[C@H]1CN([C@@H](C)CO)C(=O)c2cccc(NS(=O)(=O)c3cn(C)cn3)c2O[C@@H]1CN(C)Cc1ccc(C(=O)O)cc1
cytotoxicity call [1]: inactive
growth inhibition call [2]: inactive

C[C@H](CO)N1C[C@H](C)[C@@H](CN(C)S(=O)(=O)c2ccc(Cl)cc2)Oc2ccc(NS(=O)(=O)c3cn(C)cn3)cc2C1=O
cytotoxicity call [1]: inactive
growth inhibition call [2]: inactive

COc1ccccc1CNC(=O)C[C@H]1C[C@H]2c3cc(NC(=O)c4ccc5c(c4)OCO5)ccc3O[C@H]2[C@@H](CO)O1
cytotoxicity call [1]: inactive
growth inhibition call [2]: inactive

CCCNC(=O)N1C[C@]2(CN(C2)S(=O)(=O)c2ccccc2)c2c(n(c3cc(ccc23)OC)C)[C@@H]1CO
cytotoxicity call [1]: inactive
growth inhibition call [2]: inactive

Cc1ccc(NC(=O)[C@@H]2[C@@H]3CC/C=C\CC/C=C/CC[C@@H]32)cc1C
cytotoxicity call [1]: inactive
growth inhibition call [2]: inactive

O=C1CN(N=Cc2ccc(-c3ccc([N+](=O)[O-])cc3)o2)C(=O)[N-]1.[Na+]
cytotoxicity call [1]: inactive
growth inhibition call [2]: inactive

C[C@@H]1CCCCO[C@H](CN(C)C(=O)C2CCCCC2)[C@@H](C)CN([C@@H](C)CO)C(=O)c2cc(NC(=O)NC3CCCCC3)ccc2O1
cytotoxicity call [1]: inactive
growth inhibition call [2]: inactive

C[C@H]1CN([C@@H](C)CO)C(=O)c2cc(NS(=O)(=O)c3ccccc3)ccc2O[C@H]1CN(C)S(C)(=O)=O
cytotoxicity call [1]: inactive
growth inhibition call [2]: inactive

O=C(Nc1ccccc1)C1=C[C@H](c2ccc3c(c2)Cc2ccccc2-3)C[C@H](OCc2ccc(CO)cc2)O1
cytotoxicity call [1]: inactive
growth inhibition call [2]: inactive

C[C@@H]1CN([C@H](C)CO)C(=O)Cc2cc(NC(=O)Cc3cn(C)c4ccccc34)ccc2O[C@H]1CN(C)Cc1ccc(Oc2ccccc2)cc1
cytotoxicity call [1]: inactive
growth inhibition call [2]: inactive

O=C1CN(S(=O)(=O)Cc2ccccc2)C[C@@H]2[C@H](c3ccc(C#Cc4cccc(F)c4)cc3)[C@@H](CO)N12
cytotoxicity call [1]: inactive
growth inhibition call [2]: inactive

Cc1ccc(S(=O)(=O)NC2=NCN(CCN3CCOCC3)CN2)cc1
cytotoxicity call [1]: inactive
growth inhibition call [2]: inactive

Cc1ccc(S(=O)(=O)Nc2ccc3c(c2)C(=O)N([C@H](C)CO)C[C@H](C)[C@@H](CN(C)CC2CCCCC2)OCCCC[C@@H](C)O3)cc1
cytotoxicity call [1]: inactive
growth inhibition call [2]: inactive

C[C@@H]1CCCCO[C@H](CN(C)Cc2ccc(C(F)(F)F)cc2)[C@@H](C)CN([C@H](C)CO)C(=O)c2cc(NS(C)(=O)=O)ccc2O1
cytotoxicity call [1]: inactive
growth inhibition call [2]: inactive

CC(C)NC(=O)Nc1ccc2c(c1)C(=O)N([C@H](C)CO)C[C@@H](C)[C@@H](CN(C)C(=O)C1CCCCC1)OCCCC[C@H](C)O2
cytotoxicity call [1]: inactive
growth inhibition call [2]: inactive

N#CN=C1NC(=O)CC(=O)N1
cytotoxicity call [1]: inactive
growth inhibition call [2]: inactive

C[C@H]1CCCCO[C@@H](CN(C)S(=O)(=O)c2ccc(Cl)cc2)[C@@H](C)CN([C@@H](C)CO)C(=O)c2cc(NC(=O)CCC(F)(F)F)ccc2O1
cytotoxicity call [1]: inactive
growth inhibition call [2]: inactive

COCCOC(=O)N1C(=O)[C@@]2(c3cc(C#CC4=CCCCC4)ccc31)[C@H](c1ccccc1OCCO)N1[C@H](c3ccccc3)[C@H](c3ccccc3)OC(=O)[C@H]1[C@@H]2C(=O)N1CCc2cc(OC)c(OC)cc2C1
cytotoxicity call [1]: inactive
growth inhibition call [2]: inactive

COc1ccc(NC(=O)N(C)C[C@H]2Oc3ccc(NC(=O)Nc4ccc(C(F)(F)F)cc4)cc3CC(=O)N([C@@H](C)CO)C[C@@H]2C)cc1
cytotoxicity call [1]: inactive
growth inhibition call [2]: inactive

O=C1N[C@@H]2[C@@H](O)[C@@H](O)[C@H](O)[C@@H](CO)N2C1=O
cytotoxicity call [1]: inactive
growth inhibition call [2]: inactive

COc1cccc(S(=O)(=O)N(C)C[C@H]2Oc3ncc(C#CCC(C)C)cc3C(=O)N([C@@H](C)CO)C[C@@H]2C)c1
cytotoxicity call [1]: inactive
growth inhibition call [2]: inactive

C[C@@H]1CN([C@@H](C)CO)C(=O)c2cc(NS(=O)(=O)c3ccc(F)cc3)ccc2O[C@@H]1CN(C)Cc1ccncc1
cytotoxicity call [1]: inactive
growth inhibition call [2]: inactive

C[C@H](CO)N1C[C@H](C)[C@@H](CN(C)Cc2ccc(C(=O)Nc3ccccc3N)cc2)Oc2ccc(NC(=O)CCC(F)(F)F)cc2CC1=O
cytotoxicity call [1]: inactive
growth inhibition call [2]: inactive

COc1cc(C(=O)OCCCN2CCCN(CCOC(=O)c3cc(OC)c(OC)c(OC)c3)CC2)cc(OC)c1OC
cytotoxicity call [1]: inactive
growth inhibition call [2]: inactive

Cc1noc(C)c1NC(=O)Nc1ccc2c(c1)C(=O)N([C@H](C)CO)C[C@H](C)[C@@H](CN(C)S(=O)(=O)c1ccc(F)cc1)OCCCC[C@@H](C)O2
cytotoxicity call [1]: inactive
growth inhibition call [2]: inactive

Cc1noc(C)c1S(=O)(=O)Nc1ccc2c(c1)CC(=O)N([C@@H](C)CO)C[C@@H](C)[C@H](CN(C)Cc1ccccc1)O2
cytotoxicity call [1]: inactive
growth inhibition call [2]: inactive

C[C@H](CO)N1C[C@H](C)[C@H](CN(C)C(=O)Nc2ccc(C(F)(F)F)cc2)Oc2c(NC(=O)Nc3cccc4ccccc34)cccc2C1=O
cytotoxicity call [1]: inactive
growth inhibition call [2]: inactive

Clc1ccc(C(Cn2ccnc2)OCc2c(Cl)cccc2Cl)c(Cl)c1.O=[N+]([O-])O (stereo not drawn)
cytotoxicity call [1]: inactive
growth inhibition call [2]: inactive

CNC(=O)C[C@@H]1CC[C@@H]2[C@H](COC[C@@H](O)CN2C(=O)c2ccc3c(c2)OCO3)O1
cytotoxicity call [1]: inactive
growth inhibition call [2]: inactive

CC(C)(C)[S@@](=O)N1Cc2cc(C(=O)NCC(F)(F)F)nc(-c3cccc(-c4cccc(F)c4)c3)c2[C@H]1CCO
cytotoxicity call [1]: inactive
growth inhibition call [2]: inactive

C[C@@H]1CN([C@@H](C)CO)C(=O)c2cc(C3=CCCC3)cnc2O[C@H]1CN(C)C(=O)Nc1ccc(C(F)(F)F)cc1
cytotoxicity call [1]: inactive
growth inhibition call [2]: inactive

C[C@H]1CN([C@@H](C)CO)C(=O)Cc2cc(NC(=O)Cc3ccccc3)ccc2O[C@H]1CN(C)Cc1ccc(C(F)(F)F)cc1
cytotoxicity call [1]: inactive
growth inhibition call [2]: inactive

c1ccc(-c2nc3ccccc3o2)cc1
cytotoxicity call [1]: inactive
growth inhibition call [2]: inactive

COc1ccc(CN(C)C[C@@H]2OCCCC[C@H](C)Oc3ccc(NC(=O)Nc4ccccc4)cc3C(=O)N([C@@H](C)CO)C[C@H]2C)cc1
cytotoxicity call [1]: inactive
growth inhibition call [2]: inactive

C[C@@H]1CN([C@H](C)CO)C(=O)c2cccc(NS(=O)(=O)c3ccc(F)cc3)c2O[C@@H]1CN(C)Cc1ccc(Cl)c(Cl)c1
cytotoxicity call [1]: inactive
growth inhibition call [2]: inactive

COc1ccc(S(=O)(=O)N(C)C[C@@H]2OCCCC[C@@H](C)Oc3ccc(NC(=O)CCC(F)(F)F)cc3C(=O)N([C@@H](C)CO)C[C@@H]2C)cc1
cytotoxicity call [1]: inactive
growth inhibition call [2]: inactive

CC(C)CC#Cc1ccc2c(c1)O[C@@H](CN(C)Cc1cncnc1)[C@@H](C)CN([C@H](C)CO)S2(=O)=O
cytotoxicity call [1]: inactive
growth inhibition call [2]: inactive

C[C@@H]1CCCCO[C@@H](CN(C)Cc2ccc3c(c2)OCO3)[C@@H](C)CN([C@H](C)CO)C(=O)c2cc(NC(=O)Nc3ccc4c(c3)OCO4)ccc2O1
cytotoxicity call [1]: inactive
growth inhibition call [2]: inactive

O=C(C[C@H]1CC[C@H]2[C@@H](COC[C@@H](O)CN2Cc2cc(F)ccc2F)O1)N[C@@H]1CCN(Cc2ccccc2)C1
cytotoxicity call [1]: inactive
growth inhibition call [2]: inactive

CC(C)(C)c1ccc(-c2nc3ccccc3s2)cc1
cytotoxicity call [1]: inactive
growth inhibition call [2]: inactive

Cn1c(=O)c2c(ncn2CCNC2=NCCC2)n(C)c1=O
cytotoxicity call [1]: inactive
growth inhibition call [2]: inactive

C[C@@H]1CN([C@@H](C)CO)C(=O)c2cc(C#Cc3cccc(F)c3)cnc2O[C@H]1CN(C)Cc1ccccn1
cytotoxicity call [1]: inactive
growth inhibition call [2]: inactive

Cc1ccc(S(=O)(=O)Nc2ccc3c(c2)C(=O)N([C@H](C)CO)C[C@H](C)[C@H](CN(C)C(=O)c2ccccc2)OCCCC[C@@H](C)O3)cc1
cytotoxicity call [1]: inactive
growth inhibition call [2]: inactive

COc1cccc(C#Cc2ccc3c(c2)O[C@H](CN(C)C(C)=O)[C@@H](C)CN([C@H](C)CO)S3(=O)=O)c1
cytotoxicity call [1]: inactive
growth inhibition call [2]: inactive

Cc1n[nH]c(NCc2ccco2)nc1=O
cytotoxicity call [1]: inactive
growth inhibition call [2]: inactive

C[C@@H]1CN([C@@H](C)CO)C(=O)Cc2cc(NS(=O)(=O)c3ccc(F)cc3)ccc2O[C@H]1CN(C)CC1CC1
cytotoxicity call [1]: inactive
growth inhibition call [2]: inactive

COc1ccc(S(=O)(=O)N(C)C[C@H]2OCCCC[C@@H](C)Oc3ccc(NC(=O)Nc4ccc5c(c4)OCO5)cc3C(=O)N([C@H](C)CO)C[C@@H]2C)cc1
cytotoxicity call [1]: inactive
growth inhibition call [2]: inactive

C[C@@H]1CCCCO[C@@H](CN(C)CC2CC2)[C@@H](C)CN([C@H](C)CO)C(=O)c2cc(NC(=O)Nc3cccc4ccccc34)ccc2O1
cytotoxicity call [1]: inactive
growth inhibition call [2]: inactive

C[C@H](CO)N1C[C@H](C)[C@H](CN(C)C(=O)CN(C)C)Oc2cc(-c3ccc(C#N)cc3)ccc2S1(=O)=O
cytotoxicity call [1]: inactive
growth inhibition call [2]: inactive

COc1ccc(NC(=O)Nc2ccc3c(c2)C(=O)N([C@H](C)CO)C[C@H](C)[C@H](CN(C)C(=O)Nc2ccccc2)OCCCC[C@@H](C)O3)cc1
cytotoxicity call [1]: inactive
growth inhibition call [2]: inactive

C[C@H](O)C#Cc1cnc2c(c1)C(=O)N([C@H](C)CO)C[C@@H](C)[C@H](CN(C)Cc1cncnc1)O2
cytotoxicity call [1]: inactive
growth inhibition call [2]: inactive

O=C1CN(S(=O)(=O)Cc2ccccc2)C[C@@H]2[C@@H](c3ccc(C#Cc4cccc(F)c4)cc3)[C@H](CO)N12
cytotoxicity call [1]: active
growth inhibition call [2]: inactive

C[C@@H]1CN([C@@H](C)CO)C(=O)c2cc(NS(=O)(=O)c3ccccc3)ccc2O[C@@H](C)CCCCO[C@H]1CN(C)Cc1ccc(C(=O)O)cc1
cytotoxicity call [1]: inactive
growth inhibition call [2]: inactive

C[C@@H]1CCCCO[C@@H](CN(C)C(=O)Nc2cccc3ccccc23)[C@@H](C)CN([C@H](C)CO)C(=O)c2cc(NS(=O)(=O)c3cccs3)ccc2O1
cytotoxicity call [1]: inactive
growth inhibition call [2]: inactive

COC(=O)C1=C(C)NC(C)=C(C(=O)OC)C1c1ccccc1[N+](=O)[O-]
cytotoxicity call [1]: inactive
growth inhibition call [2]: inactive

NC(=O)CC[C@@H](N)C(=O)O
cytotoxicity call [1]: inactive
growth inhibition call [2]: inactive

COc1ccc(-n2nc(C(=O)NCC(=O)N3CCN(c4ccccc4)CC3)c3ccccc3c2=O)c(OC)c1
cytotoxicity call [1]: inactive
growth inhibition call [2]: inactive
